*1 amine or outer side, *2 acyl side, *3 side chain or, on linkers, in order; H or OH if unused. Where a SMILES comes first, the peptide text is derived from it. [ ]: non-standard residue; d: D form. The star is where a group is joined. ξ: configuration not given here. Pro(3R,4S-CMe2) = CC1(C)[C@@H]2[C@@H](C(=O)O)NC[C@@H]21; Pro(4,4-S(CH2)3S) = O=C(O)[C@@H]1CC2(CN1)SCCCS2; Pro(4,4-SCH2CH2S) = O=C(O)[C@@H]1CC2(CN1)SCCS2; ξPro(4R-OtBu) = CC(C)(C)O[C@H]1CNC(C(=O)O)C1; Benzoyl(2-COOH) = O=C(O)c1ccccc1C(=O)*; Isobutyloxycarbonyl = CC(C)COC(=O)*; Isopropoxycarbonyl = CC(C)OC(=O)*; X4 = CCCCC(N[*:1])C(=O)C(=O)[*:2]; X87 = O=C(c1ccccc1)c1ccccc1C(=O)*; Hyp = O=C(O)[C@@H]1C[C@@H](O)CN1; X2 = CCCC(N[*:1])C(=O)C(=O)[*:2]; Aad = N[C@@H](CCCC(=O)O)C(=O)O; Chg = N[C@H](C(=O)O)C1CCCCC1; Phg = N[C@H](C(=O)O)c1ccccc1; Tle = CC(C)(C)[C@H](N)C(=O)O; X40 = CCC(C(=O)*)c1ccccc1; ξChg = NC(C(=O)O)C1CCCCC1; ξPhg = NC(C(=O)O)c1ccccc1; ξTle = CC(C)(C)C(N)C(=O)O; Carboxymethyl = O=C(O)C*; PhAc = O=C(Cc1ccccc1)*; Boc = CC(C)(C)OC(=O)*; X72 = O=C(Oc1ccccc1)*; ξNle = CCCCC(N)C(=O)O; ξV = CC(C)C(N)C(=O)O; Bn = c1ccc(C*)cc1; OtBu = CC(C)(C)O*; tBu = CC(C)(C)*
Target: HCV NS3/NS4A protease (strain 1a) (Hepatitis C virus genotype 1a, UniProt P27958)
Assay: biochemical
Conditions: Compounds prepared by Solid Phase Synthesis, Table 3; read-out: Ki* CLASS

Row | SMILES | Ki
1 | CCCC(NC(=O)[C@@H]1C[C@@H](OC(C)(C)C)CN1C(=O)[C@@H](NC(=O)OC(C)(C)C)C1CCCCC1)C(=O)C(=O)NCC(=O)N[C@@H](CCCC(=O)OC(C)(C)C)C(N)=O (stereo partly drawn) (Boc-[Chg][Hyp](tBu)[X2]G[Aad](OtBu)-NH2) | > 1000 nM
2 | CCCC(NC(=O)[C@@H]1C[C@@H](OCC(=O)O)CN1C(=O)C(NC(=O)OCC(C)C)C(C)C)C(=O)C(=O)NCC(=O)NC(C(N)=O)C(C)(C)C (stereo partly drawn) (Isobutyloxycarbonyl-[ξV][Hyp](Carboxymethyl)[X2]G[ξTle]-NH2) | > 1000 nM
3 | CCCC(NC(=O)[C@@H]1C[C@@H](OC(C)(C)C)CN1C(=O)[C@@H](NC(=O)c1ccccc1C(=O)O)C1CCCCC1)C(=O)C(=O)NCC(=O)NC(C(N)=O)c1cccc2c1OCO2 (stereo partly drawn) | 101 to 1000 nM
4 | CCCCC(NC(=O)CNC(=O)C(=O)C(CCC)NC(=O)[C@@H]1C[C@@H](OCc2ccccc2)CN1C(=O)C(NC(=O)C(CC)c1ccccc1)C1CCCCC1)C(N)=O (stereo partly drawn) (X40-[ξChg][Hyp](Bn)[X2]G[ξNle]-NH2) | 101 to 1000 nM
5 | CCCC(NC(=O)[C@@H]1C[C@@H](OC(C)(C)C)CN1C(=O)[C@@H](NC(=O)Cc1ccccc1)C1CCCCC1)C(=O)C(=O)NCC(=O)N[C@H](C(N)=O)c1ccccc1 (stereo partly drawn) (PhAc-[Chg][Hyp](tBu)[X2]G[Phg]-NH2) | 1 to 100 nM
6 | CCCCC(NC(=O)[C@@H]1C[C@@H](OCc2ccccc2)CN1C(=O)C(NC(=O)c1ccccc1C(=O)c1ccccc1)C1CCCCC1)C(=O)C(=O)NCC(=O)NC(C(N)=O)c1ccccc1 (stereo partly drawn) (X87-[ξChg][Hyp](Bn)[X4]G[ξPhg]-NH2) | 101 to 1000 nM
7 | CCCC(NC(=O)[C@@H]1C[C@@H](OC(C)(C)C)CN1C(=O)[C@@H](NC(=O)c1ccccc1C(=O)O)C1CCCCC1)C(=O)C(=O)NCC(=O)N[C@H](C(N)=O)c1ccccc1 (stereo partly drawn) ({Benzoyl(2-COOH)}-[Chg][Hyp](tBu)[X2]G[Phg]-NH2) | 1 to 100 nM

Same assay, conditions: HCV protease continuous assay results, Table 1; read-out: Ki* Range

Row | SMILES | Ki
8 | C=CCNC(=O)C(=O)[C@H](CCC)NC(=O)[C@@H]1CCCN1C(=O)OC(C)(C)C [Example 7] | > 1000 nM
9 | CCCCCC(NC(=O)[C@@H]1C[C@@H](OC(C)(C)C)CN1C(=O)C(NC(=O)OCC(C)C)C(C)(C)C)C(=O)C(=O)NCC(=O)OC (stereo partly drawn) [Example 257] | > 1000 nM
10 | CCCC(NC(=O)[C@@H]1CC2(CN1C(=O)C(NC(=O)OCC(C)C)C1CCCCC1)SCCS2)C(=O)C(=O)NCC(=O)NC(C(=O)OC(C)(C)C)c1ccccc1 (stereo partly drawn) [Example 77] (Isobutyloxycarbonyl-[ξChg][Pro(4,4-SCH2CH2S)][X2]G[ξPhg]-OtBu) | 101 to 1000 nM
11 | CCCC(NC(=O)[C@@H]1CC2(CN1C(=O)C(NC(=O)Cc1ccccc1)C1CCCCC1)SCCCS2)C(=O)C(=O)NCC(=O)NC(C(=O)N(C)C)c1ccccc1 (stereo partly drawn) [Example 248] (PhAc-[ξChg][Pro(4,4-S(CH2)3S)][X2]G[ξPhg]-NMe2) | 1 to 100 nM

Continued, values first:

Row | Ki | SMILES
12 | > 1000 nM | CCCCC(NC(=O)[C@@H]1C[C@@H](OC(C)(C)C)CN1C(=O)[C@@H](NC(=O)OCC(C)C)C(C)(C)C)C(=O)C(=O)NCC(=O)N[C@@H](c1ccccc1)[C@@H](C)O (stereo partly drawn) [Example 291]
13 | 1 to 100 nM | CCCC(NC(=O)[C@@H]1CC(OCCOc2ccccc2)CN1C(=O)C(NC(C)=O)C1CCCCC1)C(=O)C(=O)NCC(=O)NC(C(=O)N(C)C)c1ccccc1 (stereo partly drawn) [Example 256]

Same assay, conditions: Ki* Range, Table 5; HCV NS3/NS4A protease, spectrophotometric assay, 30° C., pH 6.5

Row | SMILES | Ki
14 | CCCC(NC(=O)[C@@H]1[C@@H]2[C@H](CN1C(=O)[C@@H](NC(=O)Oc1ccccc1)C(C)(C)C)C2(C)C)C(=O)C(=O)NCC(=O)N[C@H](C(=O)N(C)C)c1ccccc1 (stereo partly drawn) (X72-[Tle][Pro(3R,4S-CMe2)][X2]G[Phg]-NMe2) | 1 to 100 nM

Same assay, conditions: Table 4; HCV NS3/NS4A protease, spectrophotometric assay, 30° C., pH 6.5; read-out: Ki* Range

Row | Ki | SMILES
15 | 1 to 100 nM | CCCC(NC(=O)[C@@H]1[C@@H](C)CCN1C(=O)[C@@H](NC(=O)OCC(C)C)C1CCCCC1)C(=O)C(=O)NCC(=O)NC(C(=O)N(C)C)c1ccccc1 (stereo partly drawn)
16 | 1 to 100 nM | CCCC(NC(=O)[C@@H]1CC2(CCCC2)CN1C(=O)[C@@H](NC(=O)OCC(C)C)C1CCCCC1)C(=O)C(=O)NCC(=O)NC(C(=O)N(C)C)c1ccccc1 (stereo partly drawn)

Row | SMILES | Ki
17 | CCCC(NC(=O)C1C[C@@H](OC(C)(C)C)CN1C(=O)[C@@H](NC(=O)OC(C)C)C1CCCCC1)C(=O)C(=O)NCC(=O)N[C@H](C(=O)O)c1ccccc1 (stereo partly drawn) (Isopropoxycarbonyl-[Chg][ξPro(4R-OtBu)][X2]G[Phg]-OH) | 1 to 100 nM

Same assay, conditions: Table 5; HCV NS3/NS4A protease, 30° C., pH 6.5; read-out: Ki* Range

Row | SMILES | Ki
18 | C=CCNC(=O)C(=O)C(CCC)NC(=O)[C@@H]1[C@H]2[C@@H](CN1C(=O)C(NC(=O)OC1CCCC1C1CCCC1)C1CCCCC1)C2(C)C (stereo partly drawn) | 1 to 100 nM
19 | C=CCCC(NC(=O)[C@@H]1[C@@H]2[C@H](CN1C(=O)[C@@H](NC(=O)NC13CC4CC(CC(C4)C1)C3)C1CCCCC1)C2(C)C)C(=O)C(=O)NC/C=C/COCc1ccccc1 (stereo partly drawn) | > 1000 nM

The remaining lines, values ahead:

Row | Ki | SMILES
20 | 1 to 100 nM | CCCC(NC(=O)[C@@H]1[C@@H]2[C@H](CN1C(=O)[C@@H](NC(=O)NC(C)(C)C)C(C)(C)C)C2(C)C)C(=O)C(=O)NCC(=O)NCc1ccccc1 (stereo partly drawn)
21 | > 1000 nM | C=CCNC(=O)C(=O)C(CCC)NC(=O)[C@@H]1C[C@@H](OCc2cccc3ccccc23)CN1C(=O)[C@@H](NC(=O)OC(C)(C)C)C1CCCCC1 (stereo partly drawn)
22 | 101 to 1000 nM | CC(C)(C)OC(=O)N[C@H](C(=O)N1C[C@H]2[C@@H]([C@H]1C(=O)NC(CC(F)(F)F)C(=O)C(=O)NCc1ccccc1)C2(C)C)C1Cc2ccccc2C1 (stereo partly drawn)
23 | 101 to 1000 nM | C=CCNC(=O)C(=O)C(CCC)NC(=O)[C@@H]1C2C(CN1C(=O)[C@@H](NC(=O)N(C)C(C)(C)C)C1Cc3ccccc3C1)C2(C)C (stereo partly drawn)
24 | 1 to 100 nM | CCCC(NC(=O)[C@@H]1[C@@H]2[C@@H](CN1C(=O)[C@@H](NC(=O)OC(C)(C)C)C1Cc3ccccc3C1)C2(C)C)C(=O)C(=O)NCC(=O)NCc1ccccc1 (stereo partly drawn)
